Measured values published in PubChem BioAssay AID1347165 (National Center for Advancing Translational Sciences (NCATS), 2019).
Out of some 220,000 compounds screened, about 5,700 (2.6%) were called active. The inconclusive results got no clear call from the source; some entries with a clear call stand among them for comparison. The call rests on the fitted dose curve; in most records, active means well fitted inhibition curve with a large enough effect; inconclusive means small, poorly fitted or top-dose-only effect; inactive means no such curve, though single readings can be large or run the other way. A potency beside an inconclusive call is a rough fit, not a confirmed value.

These compounds were tested against Lysine-specific demethylase 5B (Homo sapiens) (UniProt Q9UGL1) (assay: Primary screen for KDM5B Histone Demethylases FDH-coupled qHTS). Conditions: FDH-coupled NADH fluorescence (FDH is formaldehyde dehydrogenase); activity change, negative = inhibition: at 57.7 µM (top of the series) unless noted.
Chain of UniProt Q9UGL1 (Q9UGL1 whole entry, looked up): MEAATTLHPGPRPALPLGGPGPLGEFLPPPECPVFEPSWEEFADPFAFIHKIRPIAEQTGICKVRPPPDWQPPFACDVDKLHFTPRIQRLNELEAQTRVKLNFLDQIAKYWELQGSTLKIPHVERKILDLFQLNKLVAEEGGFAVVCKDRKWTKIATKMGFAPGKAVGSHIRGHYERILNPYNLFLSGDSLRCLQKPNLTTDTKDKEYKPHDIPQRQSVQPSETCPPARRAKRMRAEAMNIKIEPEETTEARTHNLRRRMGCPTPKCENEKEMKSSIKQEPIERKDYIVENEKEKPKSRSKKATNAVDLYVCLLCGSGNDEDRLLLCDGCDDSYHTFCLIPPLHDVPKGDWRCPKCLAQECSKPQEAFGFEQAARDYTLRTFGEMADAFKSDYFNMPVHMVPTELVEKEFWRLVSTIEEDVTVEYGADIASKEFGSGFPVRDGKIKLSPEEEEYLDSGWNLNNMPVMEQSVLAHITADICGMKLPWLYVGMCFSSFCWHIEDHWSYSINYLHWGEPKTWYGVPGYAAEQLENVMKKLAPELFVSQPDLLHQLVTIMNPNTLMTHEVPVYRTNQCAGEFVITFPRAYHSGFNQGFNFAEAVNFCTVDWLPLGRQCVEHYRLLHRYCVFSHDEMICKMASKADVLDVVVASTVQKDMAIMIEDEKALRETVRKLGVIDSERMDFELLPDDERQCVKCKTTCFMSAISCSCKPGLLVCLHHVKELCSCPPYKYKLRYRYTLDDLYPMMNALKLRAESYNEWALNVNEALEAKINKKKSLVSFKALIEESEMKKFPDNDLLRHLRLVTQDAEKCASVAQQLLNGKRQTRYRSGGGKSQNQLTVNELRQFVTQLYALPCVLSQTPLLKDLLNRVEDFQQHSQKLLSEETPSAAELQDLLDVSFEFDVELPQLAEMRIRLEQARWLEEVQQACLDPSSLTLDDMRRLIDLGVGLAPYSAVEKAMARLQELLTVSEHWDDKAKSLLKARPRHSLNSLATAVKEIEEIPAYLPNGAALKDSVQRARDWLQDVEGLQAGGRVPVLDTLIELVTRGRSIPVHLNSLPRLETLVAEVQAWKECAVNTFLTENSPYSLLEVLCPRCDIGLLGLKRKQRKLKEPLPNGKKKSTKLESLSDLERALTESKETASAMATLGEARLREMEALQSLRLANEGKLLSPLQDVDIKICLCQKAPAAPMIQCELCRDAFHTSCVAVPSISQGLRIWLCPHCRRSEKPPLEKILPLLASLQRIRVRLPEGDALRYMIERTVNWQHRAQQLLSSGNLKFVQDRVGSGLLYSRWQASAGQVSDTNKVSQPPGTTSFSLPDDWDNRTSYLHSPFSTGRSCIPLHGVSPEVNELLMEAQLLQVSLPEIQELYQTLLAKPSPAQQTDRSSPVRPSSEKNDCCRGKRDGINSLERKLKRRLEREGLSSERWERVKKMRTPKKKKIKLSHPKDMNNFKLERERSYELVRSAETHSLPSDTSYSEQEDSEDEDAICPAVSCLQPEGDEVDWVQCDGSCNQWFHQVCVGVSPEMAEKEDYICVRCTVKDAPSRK
Summary of the method: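 Here, H3K4me3 peptide (12.5 µM in substrate mix) is demethylated by KDM5BΔAP, 200 nM final, after 10 min compound exposure. Formaldehyde product is coupled through FDH (0.25 U/mL in mix) to NADH fluorescence; 30-min ΔRFU feeds dose-response curves.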
Further: nearly all actives have a fitted effect of over 70% in size.
Potency means the concentration at half of the fitted maximal effect; tags describe the fitted curve by direction and shape.
Wherever activity change, negative = inhibition is given: 0% is about no effect.

Compound | activity change, negative = inhibition | Potency
CCCc1c(C(=O)OCC)[nH]c2c1C(=O)CC(c1ccc(OC)c(OC)c1)C2 (configuration not stated) | inactive: 9.24% | –
O=C(N1CCN(C/C=C/c2ccccc2)CC1)C12CNCC1CNC2 (configuration not stated) | – | inconclusive: 10 µM [inhibitor, partial curve]
CC(C)CN1CCC(N2CC(Oc3cccc(C(=O)N4CCCC4)c3)C2)CC1 | inactive: -12% | –
Cc1ccc(C)c(N2CCN(C(=O)CCC(=O)Nc3ccc4nc(N5CCCCC5)cc(C)c4c3)CC2)c1 | – | inconclusive: 15.8 µM [inhibitor, partial curve, poor fit]
O=C1NC2(CCN(Cc3ccccc3)CC2)COc2ccccc21 | inactive: -16.3% [at 86.2 µM] | –
Cc1ccc(OCCSc2nnc(-c3cccs3)o2)cc1Cl | – | inconclusive: 28.2 µM [inhibitor, partial curve, poor fit]
Cc1cc(C)c(CNC(=O)c2cc(-c3cnn(C)c3)cc3c2OCCN3C)c(=O)[nH]1 | – | active: 31.6 µM
Cc1ccc(-c2c(=O)n(O)c3ccccc3[n+]2[O-])cc1 | – | inconclusive: 17.8 µM [inhibitor, partial curve, poor fit]
CN1CCN(c2cc(=O)c3ccnc(-c4cccc(CO)c4)c3o2)CC1 | – | active: 28.2 µM
CCN1c2cc(C(=O)Nc3cc(C)ccc3C)ccc2C(=O)N2CCCCCC21 (configuration not stated) | – | inconclusive: 20 µM [inhibitor, partial curve, poor fit]
O=C(CSc1nc(=O)n(Cc2cccnc2)c2c1CCC2)N1CCCC1 | inactive: 10% | –
Cc1ccc2[nH]c3c(=O)n(CC(=O)NCc4ccco4)ncc3c2c1 | – | inconclusive: 31.6 µM [inhibitor, single point]
Cc1c(CC(=O)NC2CCOCC2)c2c(n1CCc1ccccc1)CCCC2=O | – | inconclusive: 15.8 µM [inhibitor, partial curve, poor fit]
CN1C(=O)C2(CCN(S(=O)(=O)c3ccc(F)cc3)C2)c2ccccc21 (configuration not stated) | inactive: 16% | –
C[C@@H]1OCN(C)[C@H]2C[C@H]3c4[nH]c5cccc(-c6ccccc6)c5c4CCN3C[C@@H]12 | – | inconclusive: 17.8 µM [inhibitor, partial curve, poor fit]
O=Cc1cccc2[nH]ccc12 | – | inconclusive: 31.6 µM [inhibitor, partial curve, poor fit]
CC(C)CCNc1nc(C(=O)Nc2ccc(Cn3cncn3)cc2)cs1 | inactive: 15.3% | –
O=C(c1cccc2ccccc12)N1CCN(Cc2c[nH]c3ccccc23)CC1 | – | inconclusive: 28.2 µM [inhibitor, single point]
COCCOCC1(CNCC2CCCC2)C[C@@H](O)[C@@H](O)C1 (some centres not stated) | inactive: 16.1% [at 86.2 µM] | –
Cc1ccc(C(=O)NC2CCN(c3cc(-c4ccc(F)cc4)[nH]n3)CC2)cc1C | inactive: -6.9% | –
CN(C)C(=O)c1nc(-c2ccc(Cl)cc2Cl)c2cnccn12 | – | active: 100 µM

Compound | activity change, negative = inhibition | Potency
O=C(NC1CCN(c2cc(-c3ccccc3)[nH]n2)C1)c1ccc(F)c(F)c1 (configuration not stated) | – | inconclusive: 5.62 µM [inhibitor, partial curve]
Cc1cc(C)c(CNC(=O)c2nc(-c3cccc(O)c3)cc3c2ccn3C)c(=O)[nH]1 | – | active: 35.5 µM
CCc1ccc(CNC(=O)c2cc3n(n2)CC(c2ccc4c(c2)OCO4)OC3)cc1 (configuration not stated) | – | active: 25.1 µM
COc1ccc(-c2ccc3nc(-c4ccccc4)oc3c2)c(OC)c1OC | inactive: -10100% | –
O=C(OCc1ncc(-c2ccccc2)o1)c1ccc(O)cc1 | inactive: 5.74% | –
COC(=O)c1ccc(S(=O)(=O)N2CCCC2c2cccn2C)cc1 (configuration not stated) | inactive: 8.32% | –
COc1ccc(C(=O)NCc2nnc3ccc(-c4ccc(F)cc4)nn23)c(OC)n1 | – | inconclusive: 31.6 µM [inhibitor, single point]
Cc1ccc2oc([C@H]3CCN(Cc4ccccn4)C3)nc2c1 | – | inconclusive: 56.2 µM [inhibitor, single point]
COc1cc(-c2nc(S(=O)(=O)c3ccc(Br)cc3)c(N3CCOCC3)o2)cc(OC)c1OC | – | inconclusive: 39.8 µM [inhibitor, single point]
COc1ccc(-c2noc(N(c3ccc(F)c(Cl)c3)c3nc(-c4ccc(OC)c(OC)c4)no3)n2)cc1OC | – | inconclusive: 17.8 µM [inhibitor, partial curve, poor fit]
COc1cccc(NC(=O)CCc2c(C)c3ccc(O)c(C)c3oc2=O)c1 | – | inconclusive: 14.1 µM [inhibitor, partial curve, poor fit]
CCN1c2cc(C(=O)Nc3ccccc3OC)ccc2C(=O)N2CCCCCC21 (configuration not stated) | – | inconclusive: 20 µM [inhibitor, partial curve, poor fit]
CCc1[nH]c2c(CNC(=O)C3(C)CCCCO3)cc(F)cc2c1C (configuration not stated) | – | active: 20 µM
CCCCN(C)CCNC(=O)c1ccc(Cn2c(=O)[nH]c3cc(OC)c(OC)cc3c2=O)cc1 | – | inconclusive: 14.1 µM [inhibitor, partial curve, poor fit]
Cc1cc(=O)oc2c(C)c(OCC(=O)NCCN3CCOCC3)ccc12 | – | inconclusive: 25.1 µM [inhibitor, partial curve, poor fit]
O=C(NCc1ccc(F)cc1F)c1nnn2c1COC(c1ccc(Cl)cc1)C2 (configuration not stated) | – | inconclusive: 31.6 µM [inhibitor, partial curve, poor fit]
COc1ccc(-n2nc(C(=O)NCC(=O)N(C)Cc3ccccc3)c3ccccc3c2=O)cc1 | – | inconclusive: 39.8 µM [inhibitor, single point]
CCc1nc2c(c(-c3ccc(OC)cc3)n1)CN([S+](=O)([O-])c1cccs1)CC2 | – | inconclusive: 17.8 µM [inhibitor, full curve, poor fit]
O=C(O)CCC(=O)N1CCC2(CC1)CC(c1cccnc1)=NO2 | – | inconclusive: 35.5 µM [inhibitor, full curve, poor fit]
CCOC(=O)c1cnc2c(C)c(Cl)ccc2c1NCCc1ccc(OC)c(OC)c1 | – | inconclusive: 35.5 µM [inhibitor, partial curve, poor fit]
CCCCN1CCn2c(nc3cc(NC(=O)Cn4nc(C)c5ccccc5c4=O)ccc32)C1 | – | inconclusive: 28.2 µM [inhibitor, partial curve, poor fit]
